B1: GLP-1RA/FGF21 Fc fusion protein SEQ ID NO: 192 (Fc fusion)
chain: HGEGTFTSDLSKQLEERLARLFYEWLIAGGHSSQKPPPKGGGGGGGSGGGGSGGGGSA[… human IgG4 Fc with changes …]GGGSGSAHPIPDSSPLLQFGGQVRQRYLYTDDACQTEAHLEIREDGTVGGAADQSPESLLQLKALKPGVIQILGVKTSRFLCQRPDGALYGSLHFDPEACSFRELLLEDGYNVYQSEAHGLPLHLPGCKSPHRDPAPRGPARFLPLPGLPPAPPEPPGILAPQPPDVGSSDPLSMVGSQGRSPSYAS
B2: GLP-1RA/FGF21 Fc fusion protein SEQ ID NO: 202 (Fc fusion)
chain: HGEGTFTSDLSKQLEKELVRLFYEWLIKGGHSSIKPPPKGGGGGGGSGGGGSGGGGSA[… human IgG4 Fc with changes …]GGGSGSAHPIPDSSPLLQFGGQVRQRYLYTDDACQTEAHLEIREDGTVGGAADQSPESLLQLKALKPGVIQILGVKTSRFLCQRPDGALYGSLHFDPEACSFRELLLEDGYNVYQSEAHGLPLHLPGCKSPHRDPAPRGPARFLPLPGLPPAPPEPPGILAPQPPDVGSSDPLSMVGSQGRSPSYAS
B3: GLP-1RA/FGF21 Fc fusion protein SEQ ID NO: 199 (Fc fusion)
chain: HGEGTFTSDLSKQLEKELVRLFYEWLKAGGHSSGKPPPKGGGGGGGSGGGGSGGGGSA[… human IgG4 Fc with changes …]GGGSGSAHPIPDSSPLLQFGGQVRQRYLYTDDACQTEAHLEIREDGTVGGAADQSPESLLQLKALKPGVIQILGVKTSRFLCQRPDGALYGSLHFDPEACSFRELLLEDGYNVYQSEAHGLPLHLPGCKSPHRDPAPRGPARFLPLPGLPPAPPEPPGILAPQPPDVGSSDPLSMVGSQGRSPSYAS
B4: GLP-1RA/FGF21 Fc fusion protein SEQ ID NO: 76 (Fc fusion)
chain: HGEGTFTSDKSKQLEKRLVRLLIEWLIAGGHSSGKPPPKGGGGGGGSGGGGSGGGGSA[… human IgG4 Fc with changes …]GGGSGSAHPIPDSSPLLQFGGQVRQRYLYTDDACQTEAHLEIREDGTVGGAADQSPESLLQLKALKPGVIQILGVKTSRFLCQRPDGALYGSLHFDPEACSFRELLLEDGYNVYQSEAHGLPLHLPGCKSPHRDPAPRGPARFLPLPGLPPAPPEPPGILAPQPPDVGSSDPLSMVGSQGRSPSYAS
B5: GLP-1RA/FGF21 Fc fusion protein SEQ ID NO: 198 (Fc fusion)
chain: HGEGTFTSDLSKQLEKELVRLFYEWLIAGGHSSQRPPPKGGGGGGGSGGGGSGGGGSA[… human IgG4 Fc with changes …]GGGSGSAHPIPDSSPLLQFGGQVRQRYLYTDDACQTEAHLEIREDGTVGGAADQSPESLLQLKALKPGVIQILGVKTSRFLCQRPDGALYGSLHFDPEACSFRELLLEDGYNVYQSEAHGLPLHLPGCKSPHRDPAPRGPARFLPLPGLPPAPPEPPGILAPQPPDVGSSDPLSMVGSQGRSPSYAS
B6: GLP-1RA/FGF21 Fc fusion protein SEQ ID NO: 197 (Fc fusion)
chain: HGEGTFTSDLSKQLEKELVRLFYEWLINGGHSSGKPPPKGGGGGGGSGGGGSGGGGSA[… human IgG4 Fc with changes …]GGGSGSAHPIPDSSPLLQFGGQVRQRYLYTDDACQTEAHLEIREDGTVGGAADQSPESLLQLKALKPGVIQILGVKTSRFLCQRPDGALYGSLHFDPEACSFRELLLEDGYNVYQSEAHGLPLHLPGCKSPHRDPAPRGPARFLPLPGLPPAPPEPPGILAPQPPDVGSSDPLSMVGSQGRSPSYAS
B7: GLP-1RA/FGF21 Fc fusion protein SEQ ID NO: 79 (Fc fusion)
chain: HGEGTFTSDKSKQLEKRLVRLFFEWLIAGGHSSGKPPPKGGGGGGGSGGGGSGGGGSA[… human IgG4 Fc with changes …]GGGSGSAHPIPDSSPLLQFGGQVRQRYLYTDDACQTEAHLEIREDGTVGGAADQSPESLLQLKALKPGVIQILGVKTSRFLCQRPDGALYGSLHFDPEACSFRELLLEDGYNVYQSEAHGLPLHLPGCKSPHRDPAPRGPARFLPLPGLPPAPPEPPGILAPQPPDVGSSDPLSMVGSQGRSPSYAS
B8: GLP-1RA/FGF21 Fc fusion protein SEQ ID NO: 200 (Fc fusion)
chain: HGEGTFTSDLSKQLEKELVRLFYEWLIKGGHSSGRPPPKGGGGGGGSGGGGSGGGGSA[… human IgG4 Fc with changes …]GGGSGSAHPIPDSSPLLQFGGQVRQRYLYTDDACQTEAHLEIREDGTVGGAADQSPESLLQLKALKPGVIQILGVKTSRFLCQRPDGALYGSLHFDPEACSFRELLLEDGYNVYQSEAHGLPLHLPGCKSPHRDPAPRGPARFLPLPGLPPAPPEPPGILAPQPPDVGSSDPLSMVGSQGRSPSYAS
B9: GLP-1RA/FGF21 Fc fusion protein SEQ ID NO: 164 (Fc fusion)
chain: HSEGTFTSDKSKQLAKRLVRLFIEWLIKGGHSSGKPPPKGGGGGGGSGGGGSGGGGSA[… human IgG4 Fc with changes …]GGGSGSAHPIPDSSPLLQFGGQVRQRYLYTDDACQTEAHLEIREDGTVGGAADQSPESLLQLKALKPGVIQILGVKTSRFLCQRPDGALYGSLHFDPEACSFRELLLEDGYNVYQSEAHGLPLHLPGCKSPHRDPAPRGPARFLPLPGLPPAPPEPPGILAPQPPDVGSSDPLSMVGSQGRSPSYAS
B10: GLP-1RA/FGF21 Fc fusion protein SEQ ID NO: 82 (Fc fusion)
chain: HGEGTFTSDKSKQLEKRLVRLFIELLIAGGHSSGKPPPKGGGGGGGSGGGGSGGGGSA[… human IgG4 Fc with changes …]GGGSGSAHPIPDSSPLLQFGGQVRQRYLYTDDACQTEAHLEIREDGTVGGAADQSPESLLQLKALKPGVIQILGVKTSRFLCQRPDGALYGSLHFDPEACSFRELLLEDGYNVYQSEAHGLPLHLPGCKSPHRDPAPRGPARFLPLPGLPPAPPEPPGILAPQPPDVGSSDPLSMVGSQGRSPSYAS
B11: GLP-1RA/FGF21 Fc fusion protein SEQ ID NO: 80 (Fc fusion)
chain: HGEGTFTSDKSKQLEKRLVRLFILWLIAGGHSSGKPPPKGGGGGGGSGGGGSGGGGSA[… human IgG4 Fc with changes …]GGGSGSAHPIPDSSPLLQFGGQVRQRYLYTDDACQTEAHLEIREDGTVGGAADQSPESLLQLKALKPGVIQILGVKTSRFLCQRPDGALYGSLHFDPEACSFRELLLEDGYNVYQSEAHGLPLHLPGCKSPHRDPAPRGPARFLPLPGLPPAPPEPPGILAPQPPDVGSSDPLSMVGSQGRSPSYAS
B12: GLP-1RA/FGF21 Fc fusion protein SEQ ID NO: 188 (Fc fusion)
chain: HGEGTFTSDLSIQLAKRLAQLFIEWLIKGGHSSGKPPPKGGGGGGGSGGGGSGGGGSA[… human IgG4 Fc with changes …]GGGSGSAHPIPDSSPLLQFGGQVRQRYLYTDDACQTEAHLEIREDGTVGGAADQSPESLLQLKALKPGVIQILGVKTSRFLCQRPDGALYGSLHFDPEACSFRELLLEDGYNVYQSEAHGLPLHLPGCKSPHRDPAPRGPARFLPLPGLPPAPPEPPGILAPQPPDVGSSDPLSMVGSQGRSPSYAS
B13: GLP-1RA/FGF21 Fc fusion protein SEQ ID NO: 78 (Fc fusion)
chain: HGEGTFTSDKSKQLEKRLVRLFYEWLIAGGHSSGKPPPKGGGGGGGSGGGGSGGGGSA[… human IgG4 Fc with changes …]GGGSGSAHPIPDSSPLLQFGGQVRQRYLYTDDACQTEAHLEIREDGTVGGAADQSPESLLQLKALKPGVIQILGVKTSRFLCQRPDGALYGSLHFDPEACSFRELLLEDGYNVYQSEAHGLPLHLPGCKSPHRDPAPRGPARFLPLPGLPPAPPEPPGILAPQPPDVGSSDPLSMVGSQGRSPSYAS

The target in the first test is T1, Mouse GLP-1R (mouse, UniProt O35659 22-463).
T1 sequence (looked up): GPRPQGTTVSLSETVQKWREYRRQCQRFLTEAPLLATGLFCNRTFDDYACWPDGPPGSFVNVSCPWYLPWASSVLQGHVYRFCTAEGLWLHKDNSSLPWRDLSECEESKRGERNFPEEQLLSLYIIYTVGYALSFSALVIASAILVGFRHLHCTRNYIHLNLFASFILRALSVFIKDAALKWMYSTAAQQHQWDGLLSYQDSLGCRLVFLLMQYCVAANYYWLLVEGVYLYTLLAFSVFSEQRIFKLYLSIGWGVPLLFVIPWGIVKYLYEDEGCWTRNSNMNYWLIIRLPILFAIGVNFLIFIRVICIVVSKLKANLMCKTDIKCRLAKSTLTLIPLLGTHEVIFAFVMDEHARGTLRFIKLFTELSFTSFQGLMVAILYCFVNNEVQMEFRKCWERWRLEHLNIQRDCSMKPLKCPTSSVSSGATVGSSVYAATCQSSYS
Briefly: cell-based or functional assay.
As for B1, the “HTRF cAMP EC50” value amounted to 98 pmol/L.

Regarding B2, the “HTRF cAMP EC50” value turned out to be 71.7 pmol/L.

Consider B3, for which the “HTRF cAMP EC50” value turned out to be 153 pmol/L.

Take B4: the “HTRF cAMP EC50” value stood at 190 pmol/L.

For B5, the “HTRF cAMP EC50” value amounted to 65.1 pmol/L.

Take B6: the “HTRF cAMP EC50” value worked out at 48 pmol/L.

Consider B7, for which the “HTRF cAMP EC50” value worked out at 2510 pmol/L.

Take B8: the “HTRF cAMP EC50” value is 46.2 pmol/L.

Turning to B9, the “HTRF cAMP EC50” value was found to be 88 pmol/L.

Take B10: the “HTRF cAMP EC50” value worked out at 72.5 pmol/L.

For B11, the “HTRF cAMP EC50” value amounted to 64.4 pmol/L.

Take B12: the “HTRF cAMP EC50” value is 71 pmol/L.

Turning to B13, the “HTRF cAMP EC50” value came out at 323 pmol/L.

A further test addresses human glucagon-like peptide-1 (GLP-1) receptor (human, UniProt P43220 24-463). Kind of test: cell-based or functional assay.
Take B1: the “HTRF cAMP EC50” value was 102 pmol/L.

In the case of B2, the “HTRF cAMP EC50” value was 100 pmol/L.

On to B3, for which the “HTRF cAMP EC50” value turned out to be 163 pmol/L.

Consider B4, for which the “HTRF cAMP EC50” value came to 39.2 pmol/L.

For the molecule B5, the “HTRF cAMP EC50” value was 86.5 pmol/L.

As for B6, the “HTRF cAMP EC50” value worked out at 68.3 pmol/L.

As to B7, the “HTRF cAMP EC50” value came out at 243 pmol/L.

For B8, the “HTRF cAMP EC50” value came to 73.1 pmol/L.

Consider B9, for which the “HTRF cAMP EC50” value worked out at 103 pmol/L.

Consider B10, for which the “HTRF cAMP EC50” value amounted to 90.1 pmol/L.

On to B11, for which the “HTRF cAMP EC50” value was determined as 48.6 pmol/L.

In the case of B12, the “HTRF cAMP EC50” value was determined as 59.6 pmol/L.

With B13, the “HTRF cAMP EC50” value came to 51 pmol/L.

Another test concerns the target Monkey GLP-1R (monkey). Kind of test: cell-based or functional assay.
Regarding B1, the “HTRF cAMP EC50” value amounted to 149 pmol/L.

As to B2, the “HTRF cAMP EC50” value was determined as 128 pmol/L.

B3: the “HTRF cAMP EC50” value turned out to be 231 pmol/L.

As for B4, the “HTRF cAMP EC50” value came out at 40.3 pmol/L.

B5: the “HTRF cAMP EC50” value stood at 86.9 pmol/L.

As to B6, the “HTRF cAMP EC50” value amounted to 102 pmol/L.

In the case of B7, the “HTRF cAMP EC50” value is 296 pmol/L.

For the molecule B8, the “HTRF cAMP EC50” value stood at 111 pmol/L.

Turning to B9, the “HTRF cAMP EC50” value is 141 pmol/L.

On to B10, for which the “HTRF cAMP EC50” value is 109 pmol/L.

On to B11, for which the “HTRF cAMP EC50” value stood at 42.5 pmol/L.

Consider B12, for which the “HTRF cAMP EC50” value worked out at 63.7 pmol/L.

With B13, the “HTRF cAMP EC50” value was found to be 52.5 pmol/L.
